# Reference: PubChem BioAssay AID588453 (National Center for Advancing Translational Sciences (NCATS), 2011)
# Where “and” joins values, the source holds several entries; their conditions need not be identical. Identical values can stand only once. Among all 390,000 compounds or so, about 4,000 (1%) were called active. This list was built around the results that the source calls inconclusive (neither active nor inactive); the mix of calls is not that of the screen. Calls follow the shape of the dose curve; as a rule, active = well fitted inhibition curve with a large enough effect; inconclusive = small, poorly fitted or top-dose-only effect; inactive = no such curve, though single readings can be large or run the other way. Where the call is inconclusive, the potency comes from a doubtful curve fit. Some structures have more than one record in an assay (separate samples or runs), and their calls can disagree.
# Biological target: Thioredoxin reductase 1, cytoplasmic (Rattus norvegicus) (UniProt O89049)
# UniProt O89049, sequence (O89049 whole entry, looked up): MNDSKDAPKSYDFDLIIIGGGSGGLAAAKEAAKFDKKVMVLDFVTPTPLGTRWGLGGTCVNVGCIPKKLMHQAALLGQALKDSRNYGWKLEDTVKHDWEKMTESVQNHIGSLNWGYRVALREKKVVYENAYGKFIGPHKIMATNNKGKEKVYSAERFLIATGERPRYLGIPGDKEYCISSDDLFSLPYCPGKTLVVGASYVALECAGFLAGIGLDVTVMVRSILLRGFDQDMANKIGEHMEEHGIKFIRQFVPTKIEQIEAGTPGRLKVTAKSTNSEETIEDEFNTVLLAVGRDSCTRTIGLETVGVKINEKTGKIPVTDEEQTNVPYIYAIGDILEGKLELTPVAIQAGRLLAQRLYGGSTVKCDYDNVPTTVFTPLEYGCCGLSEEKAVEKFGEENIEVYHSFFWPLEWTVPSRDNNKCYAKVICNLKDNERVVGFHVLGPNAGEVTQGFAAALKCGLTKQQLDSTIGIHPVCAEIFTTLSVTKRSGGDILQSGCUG
# Assay: qHTS Assay for Inhibitors of Mammalian Selenoprotein Thioredoxin Reductase 1 (TrxR1): qHTS; also: nearly all actives have a fitted effect of over 65% in size
# Details: recombinant rTrxR1, NADPH fluorescence consumption, selenite substrate; series mostly up to 114 µM
# Summary of the method: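 Rat TrxR1 (90 nM in the dispensed reagent) was pre-reduced with 400 uM NADPH for 5 min at room temperature, then incubated with compound for 15 min. After 400 uM selenite was added, NADPH fluorescence (Ex 340/Em 450 nm) was followed for 8 min.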
# Potency is read from the fitted curve at half-maximal effect; tags tell the direction and shape of the fitted curve.
row,SMILES,Potency
1,O=S(=O)(c1ccccc1)N1CCN(Cc2ccccc2)CC1,"inconclusive: 89.1 µM [inhibitor, single point]"
2,O=C(NC1CCCC1)c1cnn2c(C(F)(F)F)cc(-c3ccco3)nc12,"inconclusive: 12.6 µM [inhibitor, full curve, poor fit]"
3,CNC(=S)Nc1ccc(Br)cc1,"inconclusive: 28.2 µM [inhibitor, single point]"
4,CC(C)(C)OC(=O)CC[C@@H](C(=O)NCCCCCCCCCCC(=O)N1CCN(C(=O)OC(C)(C)C)CC1)n1cc(CCCCCNC(=O)OC(C)(C)C)nn1,inactive
5,CCOC(=O)C1=C(Cc2ccc(OC)cc2)C(=O)c2ccccc2C1=O,"inconclusive: 17.8 µM [inhibitor, single point]"
6,N=C1C(c2nc3ccccc3s2)=C(O)CN1Cc1ccco1,"inconclusive: 15.8 µM [inhibitor, full curve]"
7,COC(=O)c1ccccc1NC(=O)CCS(=O)(=O)c1ccc(Br)cc1,"inconclusive: 50.1 µM [inhibitor, partial curve]"
8,CC(=O)Oc1ccc(/C=N/NC2=NS(=O)(=O)c3ccccc32)cc1,"inconclusive: 39.8 µM [inhibitor, partial curve, poor fit]"
9,Cc1ccc(S(=O)(=O)NN2C(=O)c3ccccc3NC2(C)C)cc1,"inconclusive: 79.4 µM [inhibitor, single point]"
10,O=c1[nH]cccc1-c1nc2ccccc2[nH]1,"inconclusive: 35.5 µM [inhibitor, single point]"
11,Cc1cc(N2CCCC2)ccc1/C=C1/C(=O)N(C)C(=S)N1C,inactive
12,COc1ccc(NC(=S)c2ccncc2)cc1,"inconclusive: 70.8 µM [inhibitor, partial curve]"
13,COC(=O)Cc1[nH]n(-c2nc3ccccc3s2)c(=O)c1C(C)=O,inactive
14,Cc1c(NC(=S)N/N=C\c2ccccc2O)c(=O)n(-c2ccccc2)n1C,"inconclusive: 70.8 µM [inhibitor, partial curve]"
15,CCCc1cc(=O)oc2c3c(cc(OCC(=O)NCc4ccccn4)c12)OC(C)(C)CC3,"inconclusive: 31.6 µM [inhibitor, single point]"
16,Cc1ccccc1NC(=O)Cn1c(O)c(N=NC(=O)c2ccccc2O)c2ccccc21,"inconclusive: 70.8 µM [inhibitor, single point]"
17,Cc1ccc(O)c(N=Nc2ccccc2)n1,"inconclusive: 56.2 µM [inhibitor, partial curve, poor fit] and inconclusive: 1.5 µM [inhibitor, full curve]"
18,CCn1c(SCC(=O)N(C)CC(=O)Nc2cccc(OC)c2)nnc1-c1ccco1,inactive
19,Cc1ccc(C(=O)CSC2=C(C#N)C(c3ccco3)C3=C(CCCC3=O)N2)cc1 (centres undefined),"inconclusive: 7.94 µM [inhibitor, full curve]"
20,CCOC(=O)C(NC(=O)c1cccnc1)(Nc1cccc(C)n1)C(F)(F)F (centres undefined),inactive
21,CCOc1ccc(NC(=S)N2CCC(NC(=O)C3CCCCC3)CC2)cc1,"inconclusive: 22.4 µM [inhibitor, single point]"
22,CCCCN(C(=O)c1ccc(-c2ccc(Cl)cc2)o1)c1c(N)n(CCCC)c(=O)[nH]c1=O,"inconclusive: 35.5 µM [inhibitor, partial curve, poor fit]"

row,SMILES,Potency
1,COc1ccc(C(=O)/C=C(\C)Nc2ccc3c(c2)OCO3)cc1,"inconclusive: 31.6 µM [inhibitor, single point]"
2,CCOC(=O)C(N)CSC1CC(=O)N(c2ccc(OCC)cc2)C1=O (centres undefined),"inconclusive: 70.8 µM [inhibitor, single point]"
3,CCc1ccc2oc(C(=O)Nc3nonc3CC)c(C)c2c1,"inconclusive: 89.1 µM [inhibitor, partial curve, poor fit]"
4,COc1ccc(OC)c(C2CC(=O)N3CN(c4ccc(C)c(Cl)c4)CSC3=C2C#N)c1 (centres undefined),"inconclusive: 17.8 µM [inhibitor, partial curve]"
5,COc1ccc2[nH]cc(C(=O)CCl)c2c1,"inconclusive: 15.8 µM [inhibitor, full curve]"
6,CCS(=O)(=O)c1cc([N+](=O)[O-])c(Sc2ccccc2NC(C)=O)s1,active: 8.91 µM
7,O=C(Nc1cccc2cccnc12)c1c(Cl)cc(Cl)cc1Cl,inactive
8,CC(=O)Oc1c(/C=C(\C#N)C(N)=O)[nH]c2ccccc12,"inconclusive: 70.8 µM [inhibitor, single point]"
9,COc1cccc(C(c2c(O)cc(C)n(Cc3ccco3)c2=O)N2CCN(c3ccccc3)CC2)c1 (centres undefined),"inconclusive: 10 µM [inhibitor, partial curve]"
10,O=C(CSc1nc2cc(Cl)ccc2s1)Nc1cccc(S(=O)(=O)N2CCOCC2)c1,"inconclusive: 79.4 µM [inhibitor, partial curve, poor fit]"
11,COc1cccc(C2=CC(c3cccc(OC)c3OC)n3nnnc3N2)c1 (centres undefined),"inconclusive: 25.1 µM [inhibitor, single point]"
12,CCn1c(SCC(=O)N2CCN(c3ccccc3F)CC2)nnc1-c1ccoc1C,"inconclusive: 25.1 µM [inhibitor, partial curve, poor fit]"
13,COc1ccc(C2CC(c3cccs3)n3nc(N)nc3N2)cc1 (centres undefined),"inconclusive: 89.1 µM [inhibitor, single point]"
14,O=S(=O)(c1ccccc1)c1nc(Cc2ccccc2)oc1N1CCOCC1,active: 1.58 µM
15,Cc1ccc(-c2ccc(CCC(=O)O)o2)cc1,active: 22.4 µM
16,Cc1cc(O)c2c(c1O)C(=O)[C@]13C(=C2O)C(=O)[C@@H]2[C@@H](O)[C@H]1[C@@H]1[C@H](O)[C@H]3C(=O)C3=C(O)c4c(O)cc(C)c(O)c4C(=O)[C@]312,"inconclusive: 56.2 µM [inhibitor, partial curve, poor fit]"
17,Cc1cc(/C=C2\SC(=S)NC2=O)c(C)[nH]1,"inconclusive: 22.4 µM [inhibitor, full curve]"
18,O=C(C1=C[C@H](c2ccccc2)C[C@H](OCCCCO)O1)N1CCN(Cc2ccc3c(c2)OCO3)CC1,"inconclusive: 12.6 µM [inhibitor, partial curve]"
19,O=C(/C=C/c1ccccc1)CC(O)(c1ccccc1)C(F)(F)F (centres undefined),"inconclusive: 28.2 µM [inhibitor, single point]"
20,CCOC(=O)c1c2c(c(=S)n(-c3ccccc3)c1N)CCC2,"inconclusive: 15.8 µM [inhibitor, full curve]"
21,C=C(C)CSC1=C(C#N)C(c2ccccc2Cl)CC(=O)N1 (centres undefined),"inconclusive: 70.8 µM [inhibitor, single point]"
22,CN1CCN(C(c2ccccn2)c2cc(Cl)c3cccnc3c2O)CC1 (centres undefined),"inconclusive: 89.1 µM [inhibitor, single point]"

row,SMILES,Potency
1,CCc1ccc2c(CN(CC)Cc3nc4ccccc4c(=O)[nH]3)cc(=O)oc2c1,"inconclusive: 70.8 µM [inhibitor, partial curve, poor fit]"
2,Cc1ccc(CS(=O)(=O)c2ncc(Cl)c(C(=O)Nc3nc4ccc(F)cc4s3)n2)cc1,"inconclusive: 3.16 µM [inhibitor, full curve]"
3,Cc1ccc(S(=O)(=O)NC(=O)COc2cc(C)ccc2C(C)C)cc1,inactive
4,Cc1cccc(C(=O)Nc2nnc(S(=O)(=O)N(C)Cc3ccco3)s2)c1,active: 44.7 µM
5,Cc1nc(-c2ccc(S(=O)(=O)Nc3ccc(S(N)(=O)=O)cc3)cc2)co1,"inconclusive: 89.1 µM [inhibitor, partial curve, poor fit]"
6,Cc1cc(-c2n[nH]c(=S)n2/N=C/c2cccc([N+](=O)[O-])c2)n[nH]1,"inconclusive: 0.794 µM [inhibitor, full curve]"
7,O=[N+]([O-])/C=C/c1cn(Cc2ccc(Cl)cc2)c2ccccc12,"inconclusive: 79.4 µM [inhibitor, single point]"
8,Cc1cc(-c2ccccc2)n[nH]1,inactive
9,Cc1cc(C)nc(NN=CC2=C(N3CCOCC3)/C(=C/c3ccc(Cl)cc3)CC2)n1,"inconclusive: 50.1 µM [inhibitor, partial curve]"
10,O=C(CSc1nc2ccc(Cl)cc2[nH]1)NCc1ccco1,"inconclusive: 12.6 µM [inhibitor, full curve, poor fit]"
11,Cc1ccc(NC2Sc3ccccc3NC2=O)cc1 (centres undefined),"inconclusive: 89.1 µM [inhibitor, single point]"
12,Cc1ccc(C(C(=O)NC2CCCCC2)N(C(=O)Cc2c[nH]c3ccccc23)c2ccccc2)o1 (centres undefined),inactive
13,Cc1[nH]n(-c2ccccc2)c(=O)c1CCOC(=O)c1ccc(C(F)(F)F)cc1,"inconclusive: 39.8 µM [inhibitor, single point]"
14,O=C(C1CCCN(S(=O)(=O)c2ccc(Br)s2)C1)N1CCN(c2ccccc2)CC1 (centres undefined),"inconclusive: 39.8 µM [inhibitor, single point]"
15,CCCn1c(CC)nc([N+](=O)[O-])c1Sc1ccc(C)cc1,"inconclusive: 31.6 µM [inhibitor, partial curve]"
16,COc1ccc(OC)c(C(=O)COC(=O)c2ccc([N+](=O)[O-])o2)c1,"inconclusive: 50.1 µM [inhibitor, partial curve, poor fit]"
17,C=Cc1ccc(Cn2c(C(=O)O)c(CNCc3ccccc3)c3ccc(C)cc32)cc1,inactive
18,Cc1ccc(S(=O)(=O)/N=C(\N)Nc2nc(C)c3cc(C)ccc3n2)cc1,inactive
19,Cc1cnc(NC(=O)/C=C/c2ccc(Br)o2)s1,inactive
20,COc1ccccc1CNC(=O)CS(=O)(=O)Cc1nc(-c2ccccc2C)oc1C,"inconclusive: 20 µM [inhibitor, full curve]"
